# The name of at least one read-out is uncertain.
# Test system: SiHa human tumour xenografts
# Assay: SiHa xenograft excision / clonogenic assay, with or without 15 Gy radiation
# Type: in vivo
# Settings: single i.p. dose 5 min after 15 Gy, relative to radiation only
Structure (SMILES),"Log kill, cmpd after radiation (20% of MTD)","Log kill, cmpd after radiation (75% of MTD)"
"O=C(NCCOP(=O)(O)O)c1cc([N+](=O)[O-])cc([N+](=O)[O-])c1N(CCBr)CCBr [Ib-7P, 2-[[2-[Bis(2-Bromoethyl)Amino]-3,5-Dinitrobenzoyl]Amino]Ethyl Dihydrogen Phosphate]",1.12 ± 0.13,2.35 ± 0.17
"O=C(O)CCCc1ccc(N(CCCl)CCCl)cc1 [Chlorambucil, reference compound]",0.18 ± 0.13,0.31 ± 0.10
"O=C(NCCOP(=O)(O)O)c1cc([N+](=O)[O-])cc([N+](=O)[O-])c1N(CCI)CCI [Ib-14P, 2-[[2-[Bis(2-Iodoethyl)Amino]-3,5-Dinitrobenzoyl]Amino]Ethyl Dihydrogen Phosphate]",0.64 ± 0.11,1.93 ± 0.21
"O=C(NCCCOP(=O)(O)O)c1c([N+](=O)[O-])ccc(N(CCBr)CCBr)c1[N+](=O)[O-] [Ic-8P, 3-({3-[Bis(2-Bromoethyl)Amino]-2,6-Dinitrobenzoyl}Amino)Propyl Dihydrogen Phosphate]",0.72 ± 0.08,
"O=C(NCCCOP(=O)(O)O)c1cc(N(CCBr)CCBr)c([N+](=O)[O-])cc1[N+](=O)[O-] [Ia-8P, 3-[[5-[Bis(2-Bromoethyl)Amino]-2,4-Dinitrobenzoyl]Amino]Propyl Dihydrogen Phosphate]",−0.01 ± 0.19,
"O=C(NCCOP(=O)(O)O)c1cc([N+](=O)[O-])cc([N+](=O)[O-])c1N(CCCl)CCCl [Ib-2P, 2-[[2-[Bis(2-Chloroethyl)Amino]-3,5-Dinitrobenzoyl]Amino]Ethyl Dihydrogen Phosphate]",−0.10 ± 0.08,
"N[C@@H](Cc1ccc(N(CCCl)CCCl)cc1)C(=O)O [Melphalan, reference compound]",0.04 ± 0.05,

# Source: patent US7629332B2, “Nitrophenyl mustard and nitrophenylaziridine alcohols and their corresponding phosphates and their use as targeted cytotoxic agents” (Auckland Uniservices Limited, priority 2003, dated 2009)
